Reference: PubChem BioAssay AID504332 (National Center for Advancing Translational Sciences (NCATS), 2011)
Out of some 350,000 compounds screened, about 31,000 (8.9%) were called active. The inconclusive results got no clear call from the source; some entries with a clear call stand among them for comparison. Calls follow the shape of the dose curve; as a rule, active = well fitted inhibition curve with a large enough effect; inconclusive = small, poorly fitted or top-dose-only effect; inactive = no such curve, though single readings can be large or run the other way. Where the call is inconclusive, the potency comes from a doubtful curve fit.

molecular target: Histone-lysine N-methyltransferase EHMT2 (Homo sapiens) (UniProt Q96KQ7); assay: qHTS Assay for Inhibitors of Histone Lysine Methyltransferase G9a; conditions: G9a H3K9 monomethylation, AlphaScreen, 2 h; activity, negative = inhibition: at 59 µM (top of the series) unless noted; also: nearly all actives have a fitted effect of over 75% in size
Sequence of UniProt Q96KQ7 (Q96KQ7 whole entry, looked up, the tested form may be a part): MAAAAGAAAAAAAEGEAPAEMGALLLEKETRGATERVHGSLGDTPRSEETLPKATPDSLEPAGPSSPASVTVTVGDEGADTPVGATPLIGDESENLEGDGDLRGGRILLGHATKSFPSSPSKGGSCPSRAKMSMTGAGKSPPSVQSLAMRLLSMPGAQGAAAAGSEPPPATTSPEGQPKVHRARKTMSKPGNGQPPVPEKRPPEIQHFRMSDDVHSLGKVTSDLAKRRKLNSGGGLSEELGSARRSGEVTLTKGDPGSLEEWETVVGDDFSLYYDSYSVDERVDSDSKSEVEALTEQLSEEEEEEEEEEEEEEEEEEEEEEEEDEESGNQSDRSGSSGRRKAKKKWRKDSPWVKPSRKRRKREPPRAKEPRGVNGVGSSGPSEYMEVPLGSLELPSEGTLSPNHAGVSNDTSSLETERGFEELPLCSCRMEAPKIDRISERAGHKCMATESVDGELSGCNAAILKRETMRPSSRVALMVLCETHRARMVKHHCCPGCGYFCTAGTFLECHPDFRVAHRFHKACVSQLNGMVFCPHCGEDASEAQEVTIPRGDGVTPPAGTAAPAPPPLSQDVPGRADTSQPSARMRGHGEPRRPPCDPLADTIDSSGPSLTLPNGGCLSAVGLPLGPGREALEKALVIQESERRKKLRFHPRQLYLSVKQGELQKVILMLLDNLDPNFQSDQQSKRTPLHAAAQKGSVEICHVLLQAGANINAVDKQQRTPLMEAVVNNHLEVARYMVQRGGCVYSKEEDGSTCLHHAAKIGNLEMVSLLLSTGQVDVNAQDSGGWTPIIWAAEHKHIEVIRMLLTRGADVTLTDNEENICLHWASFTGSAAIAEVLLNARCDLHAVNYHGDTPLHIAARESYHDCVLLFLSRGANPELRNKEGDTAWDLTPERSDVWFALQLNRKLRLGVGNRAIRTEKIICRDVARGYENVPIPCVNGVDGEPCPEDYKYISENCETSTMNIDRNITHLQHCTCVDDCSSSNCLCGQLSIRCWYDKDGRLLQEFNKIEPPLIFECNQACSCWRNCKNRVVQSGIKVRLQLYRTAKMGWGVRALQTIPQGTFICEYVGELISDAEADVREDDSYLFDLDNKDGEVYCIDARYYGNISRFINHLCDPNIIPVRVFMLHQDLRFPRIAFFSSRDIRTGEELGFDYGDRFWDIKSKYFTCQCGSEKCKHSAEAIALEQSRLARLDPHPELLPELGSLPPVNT
Description: Methylated lysines, on the N-terminal tails of histone proteins serve as epigenetic markers to recruit factors that can then modify local chromatin structure to lead to functional consequences. G9a and other members of the SUV39 family of the SET domain-containing superfamily of histone lysine methyltransferases (HMT) have been identified to specifically methylate Lys9 of histone H3 (H3K9). G9a catalyzes the mono- and di-methylation of H3K9 in mammalian euchromatic regions, where the resulting H3K9me2 is indicative of transcriptional repression. […] The inhibition of G9a will result in transcriptional activation and work synergistically with DNA methyltransferase and histone deacetylase inhibitors, to kill cancer cells. This qHTS assay for identification of G9a inhibitors is a chemiluminescence based AlphaScreen (PerkinElmer). Methylation of biotinylated-histone peptide is measured through specific antibody-based detection, in conjunction with streptavidin-coated donor and anti-IgG antibody-coated acceptor beads. The method is particularly well suited for detection of inhibitors acting by the desired histone peptide competitive mechanism and is applicable to testing other HMTs. Although AlphaScreen has significant advantages with its utility in a variety of epigenetic target assays, the primary screening data provided in this deposition should be used with caution due to the prevalence of screening artifacts. An AlphaScreen counterscreen is highly recommended to be run against any putative actives to eliminate non specific artifacts. Alternatively, one can use other AlphaScreen assays in PubChem to filter out promiscuous hits. Quinn et al. A chemiluminescence-based method for identification of histone lysine methyltransferase inhibitors. Mol Biosyst 6(5): 782-8. 2010. PMID: 20567762 [2] Baell,Holloway. New substructure filters for removal of pan assay interference compounds (PAINS) from screening libraries and for their exclusion in bioassays. J Med Chem. 53(7):2719-40. 2010. PMID: 20131845 NIH Molecular Libraries Probe Production Network [MLPCN] NIH Chemical Genomics Center [NCGC] Structural Genomics Consortium (SGC) NIH Grant: 5U54 MH084681-02
To each well of a 1,536w plate, 2ul of HMT enzyme (final 20nM) were added, using a nanoliter dispenser. The G9a- and GLP-inhibitor BIX-01294 (CID: 25150857) are used as an intraplate control, with a 16-point titration in duplicate. A Kalypsys pin-tool transferred 23nl of library compound solution in DMSO to each well. Following a 15 min incubation of enzyme with compounds at room temperature, 1ul mixture of b-H3K9 peptide substrate (final 500nM) and SAM cofactor (final 20uM) were added. Reactions were allowed to proceed at room temperature for 2 hours. Methylated b-H3K9 peptide product was detected with 0.5 ug/mL rabbit polyclonal anti-monomethyl histone H3K9 antibody (Abcam Inc., Cambridge, MA) and 20 ug/mL each streptavidin-coated donor and anti-rabbit IgG acceptor AlphaScreen beads. Antibody and beads were added in a 1ul dispense, for a final volume of 4ul, and plates were incubated, protected from the light, for 10 min at room temperature. Microplates were then read on an EnVision multilabel plate reader using the 1,536 plate HTS AlphaScreen aperture (excitation time 80 ms, measurement time 240 ms).
% is scaled to controls: 0 for no effect and ±100 for the full control effect; potency is read from the fitted curve at half-maximal effect; tags tell the direction and shape of the fitted curve.

| SMILES | Potency | activity, negative = inhibition |
| --- | --- | --- |
| Cn1ccnc1P(=S)(c1nccn1C)N1CCOCC1 | inconclusive: 10 µM [inhibitor, partial curve, poor fit] | – |
| COc1ccc(NC(=O)c2cn(CCC#N)nc2-c2ccc([N+](=O)[O-])cc2)cc1 | inconclusive: 89.1 µM [inhibitor, partial curve, poor fit] | – |
| c1ccc2sc(C3CCCNC3)nc2c1 (stereo unspecified) | active: 44.7 µM | – |
| COc1cccc(-c2nc3ccc(N4CCN(C)CC4)cc3[nH]2)c1 | active: 44.7 µM | – |
| O=C(O)c1ccccc1SSc1ccccc1C(=O)O | active: 28.2 µM | – |
| COc1ccc(Nc2cc(C)c3cc(NC(=O)c4ccccc4Cl)ccc3n2)cc1 | inconclusive: 35.5 µM [inhibitor, partial curve, poor fit] | – |
| COc1ccc(OC)c(NC(=O)Cn2cc(C(=O)c3ccccc3)c3ccccc32)c1 | inconclusive: 28.2 µM [inhibitor, partial curve, poor fit] | – |
| C=C(C)Cn1c(-c2cccc([N+](=O)[O-])c2)n[nH]c1=S | active: 12.6 µM | – |
| NC1CC1c1ccccc1 (stereo unspecified) | inactive | – |
| Cc1ccc2nc(N3CCN(C)CC3)[nH]c2c1 | – | inactive: -13.2% [at 12.7 µM] |
| c1cc2n(c1)-c1c(ccc3c1OCO3)CNC2c1ccc2c(c1)OCO2 (stereo unspecified) | active: 12.6 µM | – |
| O=C1/C(=C/c2ccncc2)N2CCC1CC2 | – | inactive: -5.35% |
| COc1cc(C(=O)OC2C[C@H]3CC[C@@H](C2)N3)ccc1O (stereo partly specified) | active: 39.8 µM | – |
| CCC(=Nc1cc(OC)ccc1OC)c1c(O)[nH]c(=O)[nH]c1=O | – | inconclusive: -66.5% [inhibitor] |
| O=c1[nH]c(=O)n(Cc2ccco2)c(O)c1C=NCCN1CCOCC1 | inconclusive: 89.1 µM [inhibitor, single point] | – |
| CC(Cc1ccccc1)NCC(=O)Nc1cc(N(C)C)nc2ccccc12 (stereo unspecified) | inconclusive: 3.98 µM [inhibitor, partial curve, poor fit] | – |
| Nc1ccccc1C(=O)OCC(=O)N1CCc2ccccc21 | – | inactive: 11.5% |
| C=CCc1cc(C=C2C(=O)NC(=O)NC2=O)cc(OC)c1OCc1ccc(C(=O)O)cc1 | active: 31.6 µM | – |
| Cn1c(O)c(C(=Nc2ccc(F)cc2)c2ccccc2)c(=O)n(C)c1=O | inconclusive: 50.1 µM [inhibitor, partial curve] | – |
| CC(C(=O)Nc1ccc(Br)cc1C(=O)c1ccccc1)N1CCOCC1 (stereo unspecified) | inconclusive: 89.1 µM [inhibitor, partial curve, poor fit] | – |
| COc1ccc(OC)c(C(Nc2ccccc2)P(=O)(OC(C)C)OC(C)C)c1 (stereo unspecified) | inconclusive: 89.1 µM [inhibitor, partial curve, poor fit] | – |
| COC(=O)[C@@]1(Cc2ccc(F)cc2)[C@H]2c3cc(C(=O)N(C)C)[nH]c3C[C@H]2CN1C(=O)c1ccccc1 | inconclusive: 70.8 µM [inhibitor, partial curve, poor fit] | – |
| O=c1[nH]c(=S)[nH]c(O)c1N=Nc1cc2c(cc1[N+](=O)[O-])OCO2 | active: 50.1 µM | – |

| SMILES | Potency | activity, negative = inhibition |
| --- | --- | --- |
| Cc1cccc(-n2c(C)n[nH]c2=S)c1C | inconclusive: 6.31 µM [inhibitor, full curve, poor fit] | – |
| Nc1ccccc1C(=O)O | – | inactive: 14.2% |
| O=P1(Oc2ccccc2)C[C@@H](O)[C@@H](O)[C@H](COCc2ccccc2)O1 (stereo partly specified) | – | inconclusive: -74.5% [inhibitor] |
| CCC1(c2ccccc2)C(=O)NC(=O)N(C)C1=O (stereo unspecified) | inconclusive: 28.2 µM [inhibitor, single point] | – |
| CCc1ccccc1NC(=O)c1cccn(Cc2ccccc2F)c1=O | – | inactive: 12.4% |
| CC(C)COP(=O)(c1ccc(N(C)C)cc1)C(Nc1ccccc1)c1ccccc1 (stereo unspecified) | inconclusive: 39.8 µM [inhibitor, single point] | – |
| O=[N+]([O-])c1ccc(Sc2nc3ccccc3o2)c([N+](=O)[O-])c1 | active: 22.4 µM | – |
| O=[N+]([O-])c1ccc(N2CCCC2)cc1N/N=C1\CN2CCC1CC2 | inconclusive: 89.1 µM [inhibitor, single point] | – |
| O=C(Nc1ccc2oc(-c3cccnc3)nc2c1)c1ccc(-c2cccc(Cl)c2)o1 | inconclusive: 5.01 µM [inhibitor, partial curve, poor fit] | – |
| C[C@]12CC[C@H]3[C@@H](CCC4=CC(=O)CC[C@@H]43)[C@@H]1CC[C@@H]2O | – | inactive: -15.5% |
| O=C(O)CCn1cc(C=C2C(=O)NC(=O)NC2=O)c(-c2cc3ccccc3oc2=O)n1 | inconclusive: 79.4 µM [inhibitor, single point] | – |
| CCOc1cc2c(cc1OCC)-n1cccc1C(c1cc(C)c(OC)cc1C)NC2 (stereo unspecified) | active: 50.1 µM | – |
| CC[n+]1c(SC)ccc2cc(OC)ccc21 | – | inactive: -17.2% |
| Cc1ccc(-n2c(C)cc(/C=C3/C(=O)NC(=O)N(C)C3=O)c2C)cc1 | inconclusive: 39.8 µM [inhibitor, single point] | – |
| O=C(Cc1ccc(S(=O)(=O)N2CCCC2)s1)N1CCN(c2ccc(F)cc2)CC1 | inconclusive: 89.1 µM [inhibitor, single point] | – |
| Cc1cccc(CSc2nc3c(cc2C#N)CN(C)CC3)c1 | inconclusive: 28.2 µM [inhibitor, single point] | – |
| Cc1ccc(C)c(NC(=O)c2cc[n+](C)cc2)c1 | active: 31.6 µM | – |
| O=c1[nH]c(CN2CCNCC2)nc2ccccc12 | inconclusive: 79.4 µM [inhibitor, single point] | – |
| CCN(CC)P(=S)(c1c(C)nc2ccccn12)c1c(C)nc2ccccn12 | active: 14.1 µM | – |
| CCC1=C(C)C(N2CCOCC2)=NP(N2CCOCC2)(N2CCOCC2)=N1 | inconclusive: 79.4 µM [inhibitor, single point] | – |
| COc1ccc(CN2C(=O)NC(=O)/C(=C\c3cccc(OC)c3OC)C2=O)cc1 | inconclusive: 50.1 µM [inhibitor, partial curve, poor fit] | – |
| O=C(N[C@H]1CN2CCC1CC2)c1ccc(Cl)cc1 | inconclusive: 31.6 µM [inhibitor, single point] | – |
| CNCCc1c[nH]c2ccccc12 | active: 28.2 µM | – |
